According to PubChem BioAssay AID686978 (National Center for Advancing Translational Sciences (NCATS), 2013):
About 64,000 (15%) of roughly 420,000 compounds were called active. Inconclusive means that the source gave no clear call. Such entries were picked first, then a sample of the others. Calls come from the whole dose curve; as a rule, active = well fitted inhibition curve with a large enough effect; inconclusive = small, poorly fitted or top-dose-only effect; inactive = flat fitted curve, though single readings scatter. No potency is given beside an inconclusive call; the fits are too rough.

Test: qHTS for Inhibitors of human tyrosyl-DNA phosphodiesterase 1 (TDP1): qHTS in cells in absence of CPT; note: nearly all actives have a fitted effect of over 55% in size
Conditions: DT40 Tdp1-/- hTDP1 cells, no CPT, ATP luminescence, 48 h; activity change, negative = growth inhibition: at 46.2 µM (top of the series) unless noted
How it was run: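 No-CPT arm: Tdp1-/-;hTDP1 DT40 cells (400/well) plus compounds, incubated ≥48 hr at 37 °C. Readout CellTiter-Glo luminescence.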
% is set by controls: 0 for no effect and ±100 for the full control effect; potency is the fitted concentration of half-maximal effect; tags give direction and shape of the fitted curve.

Compound	Potency	activity change, negative = growth inhibition
CC(C)(CNc1ccc(S(=O)(=O)C(F)(F)F)cc1[N+](=O)[O-])N1CCOCC1	inconclusive [inhibitor, single point]	–
c1ccc(Oc2nc(N3CCOCC3)nc(N3CCOCC3)n2)cc1	–	inactive: -22.4%
CCOC(=O)c1cnc2ccc(C(=O)OC)cc2c1Nc1ccc(OCc2ccccc2Cl)cc1	inconclusive [inhibitor, single point]	–
COc1cccc(N2CCN(C(=O)c3ccc4nc(N5CCC(C)CC5)sc4c3)CC2)c1	inconclusive [inhibitor, single point]	–
OCCn1c(CSc2nnc(-c3ccco3)n2-c2ccccc2)nc2ccc(Cl)cc21	–	inconclusive: -31.7% [inhibitor]
Nc1ccn([C@@H]2O[C@H](C(=O)Nc3cc(C(F)(F)F)cc(C(F)(F)F)c3)[C@@H](O)[C@H]2O)c(=O)n1	–	inactive: -20.7%
O=CNn1cnc2c(oc3nc(-c4ccccc4)cc(-c4ccco4)c32)c1=O	inconclusive [inhibitor, single point]	–
COc1cc(C=C2CN(C)C(=O)C2=O)ccc1O	–	inactive: -3.83%
CCCc1nc(SCC(=O)N2CCc3ccccc3C2)c2ccccc2n1	inconclusive [inhibitor, single point]	–
COC(=O)c1sccc1NC(=S)N(C)C1CCCCC1	inconclusive [inhibitor, single point]	–
CCCCC(=O)Nc1ccc(C)c(O)c1	inconclusive [inhibitor, partial curve, poor fit]	–
S=C1N(c2ccccc2)CN(CCN2CCOCC2)CN1c1ccccc1	–	inactive: -6.28%
CC(C)CC1NC(=S)N(Cc2ccccc2)C1=O (centres undefined)	inconclusive [inhibitor, single point]	–
COc1cccc(=O)c2c(C)n(CC(=O)c3ccccc3)c(C)c12	–	inactive: -20.6%
Cc1cc(C)n2nc(SCCOc3ccc(F)cc3)nc2n1	–	inactive: -14.2%
COCCN1Cc2cccc(C(=O)NC(C)CCc3ccco3)c2C1=O (centres undefined)	–	inactive: -4.17%
O=C(Cc1coc2ccc3ccccc3c12)Nc1nccs1	inconclusive [inhibitor, single point]	–
CCN(CC)S(=O)(=O)c1cccc(NC(=O)COC(=O)c2[nH]c(C)c(C(C)=O)c2C)c1	active: 1.03 µM	–
COc1ccc(C)cc1S(=O)(=O)Nc1cc2c3c(c1)CC(=O)N3CCC2	inconclusive [inhibitor, single point]	–
CC(=O)Nc1nc(=O)c2ccccc2s1	inconclusive [inhibitor, partial curve]	–
Cc1cccc(N2C(=O)C(O)=C(C(=O)c3cccs3)C2c2ccc(Cl)cc2)n1 (centres undefined)	inconclusive [inhibitor, single point]	–
COc1ccc(CCNc2oc(COc3ccccc3)nc2C#N)cc1	inconclusive [inhibitor, partial curve, poor fit]	–

Compound	Potency	activity change, negative = growth inhibition
C=Cn1cc[n+](CC(=O)c2ccc(Br)s2)c1	inconclusive [inhibitor, single point]	–
Cc1ccc(C(=O)NCC(=O)OCC(=O)NCCc2ccccc2)s1	inconclusive [inhibitor, single point]	–
O=C(Nc1ccn(Cc2c(F)c(F)cc(F)c2F)n1)c1ccc(COc2ccccc2Cl)cc1	inconclusive [inhibitor, single point]	–
Cc1ccc(N2CCN(c3nc4ccc(C(=O)c5ccccc5)cc4n4cnnc34)CC2)c(C)c1	active: 18.4 µM	–
COc1ccc(-c2c3c([nH]c(=S)c2C#N)CCC3)cc1	inconclusive [inhibitor, partial curve]	–
CCCc1cc(C(=O)N2CCCC(C(=O)c3ccc(Cl)cc3)C2)n(C)n1 (centres undefined)	inconclusive [inhibitor, single point]	–
CN(C)S(=O)(=O)c1cccc(C(=O)Nc2cc(S(=O)(=O)N3CCOCC3)ccc2N2CCCC2)c1	–	inactive: -26.9%
Cc1ccc(-c2cc(C(F)(F)F)n3ncc(C(=O)NCc4ccco4)c3n2)cc1	inconclusive [inhibitor, partial curve]	–
Cc1ccc(-c2nnc3ccccc3c2C(=O)Nc2ccc(F)cc2)cc1	–	inactive: -23.4%
CCCCc1nc(C(N)=O)c2[nH]c(=O)n(-c3ccc(OC)cc3OC)c2n1	inconclusive [inhibitor, partial curve]	–
Cc1cc(C(=O)N2CCCC(N3CCN(c4cccc(C(F)(F)F)c4)CC3)C2)nn1C (centres undefined)	inconclusive [inhibitor, single point]	–
CCOc1ccc(Nc2ccnc3cc(Cl)ccc23)cc1	inconclusive [inhibitor, single point]	–
Cc1c(CN(C)C)c2c(n1Cc1ccccc1)C(=O)c1ccc(Br)cc1-2	inconclusive [inhibitor, single point]	–
Cc1ccn2c(Nc3ccccc3)c(-c3c[nH]c4ccccc34)nc2c1	inconclusive [inhibitor, single point]	–
COC(=O)c1ccc(CSc2ccc3nnc(-c4ccccc4)n3n2)o1	inconclusive [inhibitor, single point]	–
COCCSc1nc(N)c2c3c(sc2n1)CN(C)CC3	inconclusive [inhibitor, partial curve]	–
O=C(NN=C(c1ccccc1)c1ccccn1)c1ccccc1	active: 0.92 µM	–
COCCN1C(=O)C(O)=C(C(C)=O)C1c1ccc(OC)c(OC)c1 (centres undefined)	–	inactive: -7.45%
CCOC(=O)c1cnc2ccc(OCC)cc2c1NCc1cccnc1	inconclusive [inhibitor, full curve, poor fit]	–
CCOc1ccc(-c2noc(CCC(=O)NC3CCCC3)n2)cc1OC	inconclusive [inhibitor, single point]	–
O=C(CC(c1ccccc1)c1ccccc1O)NCc1ccccc1 (centres undefined)	inconclusive [inhibitor, partial curve]	–
O=C(CSc1nc2[nH]ncc2c(=O)n1-c1ccccc1)c1ccc2c(c1)OCCO2	inconclusive [inhibitor, partial curve]	–
